Whole data set: some 33,000 sequences, median “E-score (-0.5 to 0.5)” near -0.054, cut for the highest 2% near 0.35. This is one part of the list.
molecular target: T1, Stb5 (UniProt P38699); assay: PBM E-score (8-mer binding enrichment) (E-score (-0.5 to 0.5)); higher = stronger / more preferred TF binding; most listed sequences are background and not binding sites; conditions: protein concentration: 200 nM; construct: GST-full length
T1 sequence: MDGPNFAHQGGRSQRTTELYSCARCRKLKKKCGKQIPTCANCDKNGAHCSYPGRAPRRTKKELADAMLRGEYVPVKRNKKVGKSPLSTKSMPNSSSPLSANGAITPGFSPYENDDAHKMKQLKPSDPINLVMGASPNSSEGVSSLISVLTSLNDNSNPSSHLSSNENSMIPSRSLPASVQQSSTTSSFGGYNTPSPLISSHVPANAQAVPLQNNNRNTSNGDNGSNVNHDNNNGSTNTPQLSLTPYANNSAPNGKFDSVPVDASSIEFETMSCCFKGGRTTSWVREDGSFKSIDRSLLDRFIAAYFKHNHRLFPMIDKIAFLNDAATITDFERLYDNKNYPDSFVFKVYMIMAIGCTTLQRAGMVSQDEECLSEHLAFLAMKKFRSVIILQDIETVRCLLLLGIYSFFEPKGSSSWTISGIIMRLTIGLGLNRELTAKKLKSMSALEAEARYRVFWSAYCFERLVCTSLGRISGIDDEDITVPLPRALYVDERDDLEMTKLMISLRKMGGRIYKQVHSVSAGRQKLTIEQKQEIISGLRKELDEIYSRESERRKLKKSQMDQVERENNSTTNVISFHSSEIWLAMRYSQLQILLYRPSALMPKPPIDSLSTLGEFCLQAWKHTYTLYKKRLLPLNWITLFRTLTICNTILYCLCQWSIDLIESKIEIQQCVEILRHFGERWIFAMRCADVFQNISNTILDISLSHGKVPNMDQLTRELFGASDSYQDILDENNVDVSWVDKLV
How it was run: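 E-scores (a modified Wilcoxon-Mann-Whitney statistic) were assigned by the Universal PBM Analysis Suite to every ungapped eight-base word pooled with its reverse complement. The input came from universal all-10-mer Agilent arrays made double-stranded by primer extension and probed with GST-tagged yeast transcription factors at about 100-200 nM. Fluorescent anti-GST detected bound protein, and masliner normalised the scans.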

Sequence	PBM E-score
CATACCAC	-0.047
CCCTGGAA	-0.0335
AGCACGGA	0.0905
CGTTGTCC	-0.0582
ACACACCC	0.0669
ACGTATCC	-0.0573
TGGATAAA	0.0988
CCCGGGAC	0.313
CTTGTGTC	0.0484
TCACAAAA	0.0716
TCCATAGA	-0.0154
GTACACTA	-0.0679
CCTGCCGA	-0.089
CTATGGCC	0.0987
CCCGAGGC	0.174
ATGCCAAG	-0.174
ACGGGTTA	0.0414
CCAACTCG	-0.131
CCGCAAAC	0.139
TACCCAAA	-0.283
CTGAGTTC	-0.145
GGGGTGAC	0.0132
CTCACTCC	-0.0219
GCACGCGA	-0.17
CTAAGTCC	0.245

Sequence	PBM E-score
ATCAATCC	0.0187
ACGAGGTA	-0.0801
AAATATTA	-0.0821
CCGTCGAA	0.201
CCCCATAG	-0.0805
GTGGACAC	-0.0799
CCGATTGC	0.241
CATATTTC	-0.0136
CAACAATG	-0.0552
CGTTCCCA	-0.107
AGCATCAG	-0.0401
ATAGTCCA	-0.12
CTTGAAAG	-0.149
CTATAGGC	-0.0578
GCGCGAGC	0.0731
CCACCGAG	0.0738
ACTTGTAT	-0.218
GGGCAACC	-0.00547
ACACTATG	-0.13
AGCTCAAG	-0.295
AAAGTCCT	0.108
ACGCAAAG	-0.0493
GTGTCTAA	-0.105
ACGACTTG	-0.282
GTCCTATA	0.211

Sequence	PBM E-score
CATGAAGA	-0.0479
AAGGGAGT	-0.11
AACGTGGA	-0.262
AAATGCAA	-0.0569
CGACGATA	0.0169
AGACGAAG	-0.146
AGTTCTGA	-0.18
ATTCCGGG	0.17
AGGTAATC	0.0868
CGCGTATC	0.122
ATAAGACA	-0.113
TGGGAACA	-0.159
CAACTTCA	-0.224
AAAGGGCA	-0.138
CTGCTTAC	-0.0797
ACAACAGC	0.0134
AGCCCACG	-0.0497
GAACCCGA	0.0501
CAGAACGC	-0.0861
GCACTACC	-0.055
AAAAGAAA	0.134
GCAATCCC	0.282
GAATGAAC	-0.141
AGGTAACA	-0.111
ACAGTCGA	-0.143

Sequence	PBM E-score
AAGCAGCG	0.0849
CTGTTCTC	-0.0311
ATTCCTGC	-0.148
CGACAAAG	-0.0343
AAGTTTTC	0.0659
CGCGAACC	0.044
CAAATCTA	-0.239
GAGTCTCC	0.084
CCCTCGGC	0.0313
GCAAACAC	0.0822
ACCTACAG	-0.00245
CTCCGTGA	0.19
GTACTAAC	0.0231
CATCAAGG	-0.222
CCAATTAC	-0.0408
GTCGCTGA	-0.121
GACCACAA	-0.0305
AATGGTAG	-0.0922
ACATACAG	-0.102
GAGACTAC	-0.214
AAGACTGA	-0.216
CCGAAAAC	0.123
ACCCTTTA	0.00637
CAATATCG	-0.0398
AGCCCCCC	-0.282

Sequence	PBM E-score
ACGGCAAA	0.235
GCTTAGGA	-0.0154
ATTATAAG	0.11
CGGAGCCA	0.294
CCATTACA	-0.0115
GAGGGCAC	-0.252
CATCGTGC	-0.0642
AACCGTCG	0.212
CCTATGCG	-0.0329
ATCCCGCA	0.181
GTCCTTGA	-0.124
AAAAGCGA	0.0828
AACCCCCC	0.0126
ATGCCCCC	-0.0359
CGCAGAGC	-0.0211
CTAACTGC	-0.031
GCATCTTA	-0.0706
CTTTAACC	0.0344
AACTATGC	0.0185
AAGCCAAA	-0.234
ACGTTGAG	-0.0677
CCGGAAGG	0.142
TAGAATAA	0.0848
CATAGCCC	0.0349
ATAAACTG	-0.00234

Sequence	PBM E-score
CATCTGGC	0.0795
AAATTATA	0.212
CATTTCGA	-0.142
GAGCGGGA	0.249
TCATTGAA	-0.135
CTGGAATC	-0.131
GGGCACAC	-0.0897
CACAGGCC	-0.0705
AAATGCTG	-0.0926
AGCGATGG	-0.0413
CTGGCCGC	-0.147
CTCAGTAA	-0.0363
GAATAAGA	0.0303
CTTGGTGA	0.0226
CCTGAGTA	-0.104
AATTAAGC	0.12
AGTAGTCC	0.074
GCTCGTGA	-0.0398
ACCACGAT	-0.261
AATTCTTC	0.213
CTCTAGTA	-0.055
CTCTAACA	-0.103
CATTCTGG	-0.189
CTGAAGGA	-0.15
AAGTGGCG	0.026

Sequence	PBM E-score
CGATATGC	0.0672
GGTTCTAA	0.269
CATTACAC	-0.0322
CCTCTTTC	-0.126
CAGTTTGG	-0.175
GCGTGAGC	0.11
GTCCACCA	0.0514
ATTCCCGA	0.379
ACGTTTAC	-0.111
AATTAAAA	-0.0448
CATACACA	-0.231
TGTTTTAA	0.0881
CGAATGGA	-0.115
AATGAATG	-0.0477
CCTCGGTC	0.0945
CTTAGAAC	0.0364
CATTAGAG	-0.118
AGACTCAA	-0.176
CTAAAACA	0.149
ATGTCGAA	-0.0864
CATCCGGA	0.235
ACCCACCA	-0.0841
